{"source": "PubChem BioAssay AID624296", "about": "(National Center for Advancing Translational Sciences (NCATS), 2012)", "note": "Among all 350,000 compounds or so, about 9,900 (2.8%) were called active. The shares of active, inactive and inconclusive entries below differ from those in the screen. The call rests on the fitted dose curve; in most records, active means well fitted activation curve with a large enough effect; inconclusive means small, poorly fitted or top-dose-only effect; inactive means no such curve, though single readings can be large or run the other way. No potency is given beside an inconclusive call; the fits are too rough. Potency means the concentration at half of the fitted maximal effect; tags describe the fitted curve by direction and shape."}
{"assay": "A quantitative high throughput screen for small molecules that induce DNA re-replication in MCF 10a normal breast cells; further: nearly all actives have a fitted effect of over 50% in size; on activity, positive = re-replication: % of control where 0% means no effect.", "details": "MCF 10A DNA re-replication, Hoechst nuclear intensity, 48 h; activity, positive = re-replication: at 46.1 µM (top of the series)"}
{"smiles": "COc1cccc(CN(C)C(=O)C2CC(=O)N(c3ccc4c(c3)OCCO4)C2)c1", "note": "(configuration not stated)", "activity, positive = re-replication": "inactive: 7.13%"}
{"smiles": "O=C(Cn1cnc2sc(-c3ccccc3)cc2c1=O)NCc1ccco1", "Potency": "inconclusive [activator, single point]"}
{"smiles": "Cc1ccc(NCCN(C)C)c2c(=O)c3cc(O)ccc3sc12", "activity, positive = re-replication": "inactive: 8.05%"}
{"smiles": "O=C(c1ccco1)N1CCN(c2ncnc3c2oc2ccccc23)CC1", "Potency": "inconclusive [activator, partial curve, poor fit]"}
{"smiles": "CCc1ccccc1NC(=O)CN(C)C(=O)CSc1nnc(Nc2cccc(C)c2C)s1", "activity, positive = re-replication": "inactive: 14.6%"}
{"smiles": "Cc1ccc(CN2CCN(/N=C/c3cccn3C)CC2)c(C)c1", "activity, positive = re-replication": "inactive: 4.02%"}
{"smiles": "O=C(O)c1cc(-c2ccncc2)nc2ccc(S(=O)(=O)N3CCOCC3)cc12", "Potency": "inconclusive [activator, single point]"}
{"smiles": "CC(Oc1cccnc1[N+](=O)[O-])C(=O)Nc1cccc(Cl)c1", "note": "(configuration not stated)", "activity, positive = re-replication": "inactive: 8.23%"}
{"smiles": "COc1ccc(-n2c(C)cc(C(=O)CN3C(=O)C(=O)N(Cc4ccccc4)C3=O)c2C)cc1", "Potency": "active: 5.8 µM"}
{"smiles": "CSc1ccccc1-n1nnnc1SCC(=O)Nc1cc(C)ccc1C", "activity, positive = re-replication": "inactive: 2.29%"}
{"smiles": "O=C(c1ccc2ccccc2c1)N1CCN(S(=O)(=O)/C=C/c2ccccc2)CC1", "Potency": "inconclusive [activator, single point]"}
{"smiles": "c1ccc2c(c1)OCC(CN1CCCCC1)O2", "note": "(configuration not stated)", "activity, positive = re-replication": "inactive: 3.32%"}
{"smiles": "CC1(C(=O)O)CCC2(C)CCC3(C)C(=CC(=O)C4C5(C)CCC(O)C(C)(C)C5CCC43C)C2C1", "note": "(configuration not stated)", "Potency": "active: 26.6 µM"}
{"smiles": "Cc1c(C(=O)N/N=C/c2ccccc2)[nH]c2ccc(Cl)cc12", "Potency": "active: 14.6 µM"}
{"smiles": "Oc1ccccc1-c1cncn1Cc1ccccc1", "activity, positive = re-replication": "inconclusive: 39.1% [activator]"}
{"smiles": "O=c1[nH]c(=O)n(Cc2ccco2)c2c1C(C(F)(F)F)(C(F)(F)F)N=C(CCC1CCCCC1)N2", "activity, positive = re-replication": "inactive: 1.5%"}
{"smiles": "COc1ccc(NC(=O)c2oc3ccccc3c2NC(=O)c2ccco2)c(OC)c1", "Potency": "inconclusive [activator, full curve, poor fit]"}
{"smiles": "CCc1ccccc1N(C)S(=O)(=O)c1cc(-c2cc(C)no2)ccc1OC", "Potency": "inconclusive [activator, single point]"}
{"smiles": "COc1ccc(-c2cnc3c(c2)CCC3(C#N)C#N)cc1", "Potency": "active: 4.11 µM"}
{"smiles": "O=C(NCCCN1CCOCC1)C(=O)NCc1ccccc1Cl", "Potency": "inconclusive [activator, single point]"}
{"smiles": "O=C(c1cccc(S(=O)(=O)N2CCCC2)c1)c1nnc(-c2ccncc2)o1", "activity, positive = re-replication": "inactive: 8.37%"}
{"smiles": "CS(=O)(=O)c1ccccc1-c1nnc(NC(=O)c2ccco2)o1", "activity, positive = re-replication": "inactive: -0.88%"}
{"smiles": "COc1ccc(-c2ccc(-c3noc(-c4cccs4)n3)c(OC)n2)cc1", "Potency": "inconclusive [activator, partial curve]"}
{"smiles": "Cc1c(CCC(=O)N2CCC(C(=O)O)(c3ccccc3)CC2)c(=O)oc2cc3oc4c(c3cc12)CCCC4", "activity, positive = re-replication": "inactive: 20.7%"}
{"smiles": "Cc1nn(-c2ccccc2)c(Cl)c1/C=C/C(=O)c1ccc(O)cc1", "Potency": "inconclusive [activator, single point]"}
{"smiles": "NC(=O)N1c2ccccc2C=Cc2ccccc21", "Potency": "inconclusive [activator, single point]"}
{"smiles": "Cc1cccc(-n2ncc3c(NCCc4ccc(S(N)(=O)=O)cc4)ncnc32)c1", "Potency": "inconclusive [activator, full curve, poor fit]"}
{"smiles": "Cc1cccc(C(=O)N(CC(=O)Nc2sc(C)c(C)c2C(N)=O)C2CCCC2)c1", "activity, positive = re-replication": "inactive: -1.81%"}
{"smiles": "CCc1ccccc1N(C(=O)c1cccs1)C1C=CS(=O)(=O)C1", "note": "(configuration not stated)", "Potency": "active: 2.59 µM"}
{"smiles": "Cc1ccc(OCC(=O)OCC(=O)NC2CC2)cc1C", "activity, positive = re-replication": "inactive: 0.651%"}
{"smiles": "Cc1ccc2nc(-c3ccc(NS(C)(=O)=O)cc3)cc(-c3ccccc3)c2c1", "Potency": "inconclusive [activator, single point]"}
{"smiles": "CC(Oc1cccnc1[N+](=O)[O-])C(=O)Nc1ccc(F)cc1", "note": "(configuration not stated)", "Potency": "inconclusive [activator, partial curve, poor fit]"}
{"smiles": "Cc1cc(=O)[nH]c(N/N=C/c2ccc(-c3ccc(F)cc3)o2)n1", "Potency": "inconclusive [activator, single point]"}
{"smiles": "O=C(O)CC(CC(=O)Nc1ccc(-c2ccccc2)cc1)c1ccccc1", "note": "(configuration not stated)", "activity, positive = re-replication": "inactive: -1.19%"}
{"smiles": "CC(NC(=O)c1ccc(S(=O)(=O)N(C)C)cc1)c1ccc(-n2ccnc2)cc1", "note": "(configuration not stated)", "activity, positive = re-replication": "inactive: -17.4%"}
{"smiles": "COc1ccc(OCC(=O)Nc2ccc(N3CCN(C(=O)c4ccco4)CC3)cc2)cc1", "Potency": "inconclusive [activator, partial curve, poor fit]"}
{"smiles": "Cc1ccc(/C=C/C(=O)NCCc2cccc(Cl)c2)o1", "Potency": "inconclusive [activator, single point]"}
{"smiles": "CCCCOc1ccc(C(=O)N/C(=C/C=C/c2ccccc2)C(=O)NCCO)cc1", "Potency": "inconclusive [activator, single point]"}
{"smiles": "Cc1ccc(C(=O)N2CC=C(c3ccccc3)CC2)s1", "Potency": "inconclusive [activator, partial curve, poor fit]"}
{"smiles": "O=C(O)c1cccc(NC(=O)C23CC4CC(C2)CC(n2cnc(Cl)n2)(C4)C3)c1", "activity, positive = re-replication": "inactive: 1.05%"}
{"smiles": "COc1ccc(-c2nnc3sc(-c4cccs4)nn23)cc1OC", "Potency": "inconclusive [activator, single point]"}
{"smiles": "CC(C)CN1C(=O)c2ccc(NC(=O)c3cccs3)cc2C1=O", "Potency": "inconclusive [activator, single point]"}
{"smiles": "COc1cc(NC(=O)CSc2nnnn2C2CCCC2)cc(OC)c1", "activity, positive = re-replication": "inactive: 7.22%"}
{"smiles": "Cc1ccc(S(=O)(=O)CCC(=O)Nc2nc(-c3ccccn3)cs2)cc1", "Potency": "inconclusive [activator, single point]"}
{"smiles": "O=S(=O)([N-]c1nc2ccccc2nc1-n1cc[n+](Cc2ccccc2)c1)c1ccc(Cl)cc1", "Potency": "active: 18.4 µM"}
{"smiles": "CCOC(=O)C(C)Sc1nnc(NC(=O)c2ccc(C)c([N+](=O)[O-])c2)s1", "note": "(configuration not stated)", "Potency": "inconclusive [activator, partial curve, poor fit]"}
{"smiles": "Cc1cccc(N2CCN(C(=O)/C=C/c3cccs3)CC2)c1C", "Potency": "inconclusive [activator, single point]"}
{"smiles": "COc1ccc2nc(NC(=O)CSc3nc4cccnc4n3C)sc2c1", "Potency": "inconclusive [activator, partial curve, poor fit]"}
{"smiles": "O=C(CCCN1C(=O)/C(=C/c2ccco2)SC1=S)Nc1ccccc1C(=O)O", "Potency": "inconclusive [activator, partial curve, poor fit]"}
{"smiles": "COc1ccc(C(=O)NC2CCCc3ccccc32)cc1", "note": "(configuration not stated)", "activity, positive = re-replication": "inactive: 14.6%"}
{"smiles": "Cc1ccc(Nc2ncccc2C(=O)NCc2cccs2)c(C)c1", "Potency": "inconclusive [activator, partial curve, poor fit]"}
{"smiles": "CC(C)c1cc(-c2cc(-c3ccc(Cl)cc3)on2)nc(NCC2CC2)n1", "Potency": "inconclusive [activator, single point]"}
{"smiles": "COc1cc2c(cc1OC)C(COc1ccc(C(C)C)cc1)NCC2", "note": "(configuration not stated)", "activity, positive = re-replication": "inactive: -4.25%"}
{"smiles": "CC(C#N)Sc1ncnc2sc3c(c12)CCC3", "note": "(configuration not stated)", "Potency": "inconclusive [activator, single point]"}
{"smiles": "O=C(CCN1C(=O)/C(=C/C=C/c2ccccc2)SC1=S)Nc1cccnc1", "Potency": "inconclusive [activator, partial curve, poor fit]"}
{"smiles": "N/C(=N\\OC(=O)c1cccc(Cn2cc(C(F)(F)F)ccc2=O)c1)c1ccccc1", "activity, positive = re-replication": "inactive: 3.55%"}
{"smiles": "O=C(Nc1ccc(S(=O)(=O)N2CCOCC2)cc1)c1ccc2c(c1)S(=O)(=O)c1ccccc1C2=O", "activity, positive = re-replication": "inactive: -0.561%"}
{"smiles": "CC(C)C(Cl)=NOC(=O)Nc1ccc(F)cc1", "Potency": "active: 3.26 µM"}
{"smiles": "CC(=O)Nc1ccc(N/C(C)=C/C(=O)c2cccnc2)cc1", "Potency": "inconclusive [activator, single point]"}
{"smiles": "COc1ccc(/C=N/NC(=O)c2cccc(Br)c2)cc1Cn1cc(Cl)cn1", "Potency": "inconclusive [activator, single point]"}
{"smiles": "CC1=C(C#N)C(c2ccccc2)C2=C(N1)c1ccccc1C2=O", "note": "(configuration not stated)", "Potency": "active: 1.46 µM"}
{"smiles": "COc1ccc(Cl)cc1Nc1nc(-c2cccnc2)cs1", "Potency": "inconclusive [activator, single point]"}
{"smiles": "COc1cc2nc(Nc3cccc(F)c3)nc(N)c2cc1OC", "Potency": "inconclusive [activator, partial curve, poor fit]"}
{"smiles": "CCOC(=O)c1ccc(NC(=S)N2CCN(C)CC2)cc1", "Potency": "inconclusive [activator, partial curve, poor fit]"}
{"smiles": "O=C(c1cc(-c2ccc(Cl)cc2Cl)on1)N1CCCC1", "activity, positive = re-replication": "inactive: 2.22%"}
{"smiles": "Cc1ccc(C23CC4CC(CC(CN)(C4)C2)C3)cc1", "Potency": "inconclusive [activator, single point]"}
{"smiles": "COc1cc(CO)ccc1OCc1ccc(Cl)nc1", "Potency": "inconclusive [activator, full curve, poor fit]"}
{"smiles": "COCCN(C(=O)c1ccco1)c1nnc(-c2ccc(F)cc2)s1", "Potency": "inconclusive [activator, single point]"}
{"smiles": "CN(Cc1cccc(Cl)c1Cl)C(=O)c1ccccc1SCC(=O)N1CCCC1", "Potency": "inconclusive [activator, single point]"}
{"smiles": "COCCCn1c(=N)c(C(=O)NCC2CCCO2)cc2c(=O)n3cccc(C)c3nc21", "note": "(configuration not stated)", "Potency": "active: 13 µM"}
{"smiles": "O=C(/C=C/c1cccnc1)c1ccc(O)cc1", "Potency": "inconclusive [activator, single point]"}
{"smiles": "CCN1CCCC1CNC(=O)c1cc([N+](=O)[O-])c(N(C)C)cc1OC", "note": "(configuration not stated)", "Potency": "inconclusive [activator, partial curve, poor fit]"}
